Molecules are shown by their SMILES.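 The compound was tested at five concentrations on cells cultured in 96-well plates, with a 48-hour exposure period. Here, GI50 denotes the concentration required for 50% inhibition of growth.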 Active and inactive are the calls of the source. Rule as the data show it: active = GI50 up to about 1.1 µM and inactive = higher.

The assay relates to NCI-H322M. In words: inhibition of tumour cell growth, NCI panel, 48 h.
On to `N#C/C(=C\c1cccc(O)c1)C(N)=O`, for which the GI50 is inactive: > 100 µM. Take `COc1ccc(-c2cc(O)c3cc(OC)ccc3n2)cc1`: the GI50 is inactive: > 100 µM.

In the case of `CC1C2=C(O)CC(C)(C)CC2=NC2=C1C(=O)CC(C)(C)C2` (configuration not stated), the GI50 was inactive: > 100 µM. Regarding `CCN(CC)CCCNc1[nH]c2ccccc2c2nc3ccc(OC)cc3c1-2`, the GI50 is inactive: 1.26 µM. `COc1cccc2c1C(=O)c1ccc3cc(CO)cc(O)c3c1C2=O`: the GI50 was active: 1.05 µM.

For the compound `CC1CN(C)c2ccccc2N=C1NN` (configuration not stated), the GI50 is inactive: > 100 µM. `CCCCc1ccc(Nc2nc(Cl)c3c(ncn3COCCOC(C)=O)n2)cc1`: the GI50 is inactive: 15.7 µM. With `Cc1ccc(C(=O)Nc2ccc(CP(=O)(O)O)cc2CP(=O)(O)O)cc1NC(=O)Nc1cc(C(=O)Nc2ccc(CP(=O)(O)O)cc2CP(=O)(O)O)ccc1C`, the GI50 is inactive: > 100 µM.

As for `CC1=NN2C(c3ccc(C)cc3)=CSC2=NC(C)(C)C1`, the GI50 is inactive: > 100 µM. Consider `CCCN(CCCCC(NC(C)=O)C(=O)NCc1ccccc1)C(=O)N(CCCl)N=O` (configuration not stated), for which the GI50 was inactive: > 100 µM. Take `[N-]=[N+]=NC1=C(c2ccccn2)C(=O)c2cccc3cccc1c23`: the GI50 was inactive: 65.3 µM. As to `Cc1ccc(/N=N/C2S/C(=C(\C#N)c3nc4ccccc4[nH]3)N(c3ccccc3)C2=O)cc1` (configuration not stated), the GI50 is inactive: > 100 µM. With `CC1(C)N=C(N)N=C(N)N1c1ccc(CCCCc2ccc(Cl)cc2Cl)cc1`, the GI50 was active: 0.957 µM. As for `CCCCCCCCCCCCCCCCCCCCCC(=O)Nc1ccn(C2OC(CO)C(O)C2O)c(=O)n1` (configuration not stated), the GI50 is inactive: > 100 µM. `CC(C)Sc1nncc(/C(N)=N/O)n1`: the GI50 was inactive: > 100 µM.

On to `O=[N+]([O-])C(/C=N/Nc1ccccc1)/C=N/Nc1ccccc1`, for which the GI50 was inactive: > 100 µM. With `O=C(NCCCc1cn[nH]c(=O)n1)c1cccc2nc3ccccc3nc12` the figure was inactive: 78 µM. With `COc1cc2c3c(c1OC)C(=O)C=C3N(S(=O)(=O)c1ccc(C)cc1)CC2`, the GI50 was inactive: > 100 µM. As to `CN(C)C1(N(C)C)Oc2c(c(=O)n(C)c(=O)n2C)C(c2ccc(C(F)(F)F)cc2)C1(F)F` (configuration not stated), the GI50 is inactive: > 100 µM. Take `COC(=O)CCC(=O)C(CC(=O)OC)C(=O)CCC(=O)NCCc1ccccc1` (configuration not stated): the GI50 is inactive: > 100 µM. With `CC1CCCC2=C1C(c1ccc(Cl)cc1)n1c(s/c(=C\c3ccc(Cl)cc3)c1=O)=N2` (configuration not stated) the figure was inactive: > 100 µM. With `COc1ccc(Oc2cccc(C3C4C(=O)N(c5ccc(C)c(Cl)c5)C(=O)C4ON3C(C(N)=O)c3ccccc3)c2)cc1` (configuration not stated) the figure was inactive: 15.5 µM; with `CCOC(=O)C1Cc2[nH]c3ccccc3c2C(C)C1C` (configuration not stated), inactive: 18.8 µM; with `CCCCCCc1cc(C(=O)Nc2cccc(C(F)(F)F)c2)nc(N)n1`, inactive: > 100 µM. For the compound `COc1ccc(-n2c(=O)n(-c3ccccc3)c(=O)n2-c2ccc(OC)cc2)cc1`, the GI50 is inactive: > 100 µM. For the compound `COc1cccc(C=O)c1O`, the GI50 is inactive: 44.4 µM. On to `Cc1ccsc1/C=N/Nc1nc2ccccc2s1`, for which the GI50 is inactive: 21.8 µM. With `S=C(Nc1c2c(nc3ccccc13)CCCC2)Nc1c2c(nc3ccccc13)CCCC2`, the GI50 is inactive: > 100 µM. With `CCc1cccc(C)c1NC(=O)C1=C(C)NC(C)=C(C(=O)Nc2c(C)cccc2CC)C1c1ccc([N+](=O)[O-])cc1` the figure was inactive: 44.9 µM; with `CC(C)[C@@H](COC(C)(C)C)/N=C/N1CCc2c([nH]c3ccccc23)C1`, inactive: > 100 µM. With `CC12C/C(=C\c3ccccc3)C(=O)C3C1CCCC32`, the GI50 is inactive: > 100 µM.

Regarding `c1ccc(/N=C2\SC(c3ccccc3)CN2C23CC4CC(CC(C4)C2)C3)cc1` (configuration not stated), the GI50 was inactive: > 100 µM. Turning to `COc1ccc(-c2cc(-c3ccc(Nc4ccnc5cc(C(F)(F)F)ccc45)cc3)[nH]c(=O)c2C#N)c2ccccc12`, the GI50 is inactive: > 80.7 µM. Next, `COc1ccc(/N=N\c2c(N)nn3c(SC)c(C#N)c(N)nc23)cc1`: inactive: 11.4 µM. Next, `COC(=O)CCC1=NOC(CC2CC(CCC(=O)OC)=NO2)C1` (configuration not stated): inactive: > 100 µM. As to `C=CCC(SC)C1=C(C)C(=O)c2ccccc21` (configuration not stated), the GI50 was inactive: > 10 µM.

As to `Cc1cc(Cl)ccc1NC(=O)CCCC(=O)C1C/C(=N/O)CC/C1=N\O` (configuration not stated), the GI50 was inactive: > 100 µM. In the case of `COc1ccc2oc(=N)c(C(=O)Nc3ccccn3)cc2c1`, the GI50 is inactive: > 100 µM. Regarding `CN(C(=O)C12C3C4C5C3C1(C(=O)O)C5C42)C(C)(C)C` (configuration not stated), the GI50 was inactive: > 100 µM. In the case of `CC(Oc1ccc(OCC2CCCCC2)cc1)C(N)=O` (configuration not stated), the GI50 is inactive: > 100 µM. As to `CNC(=S)NNc1ncnc2c1c(-c1ccc(Cl)cc1)cn2-c1ccc(C)cc1`, the GI50 is inactive: 10.2 µM.

As for `CCCCCCCCCCn1cccc1/C=C/c1ccc(/C=C/c2cccn2CCCCCCCCCC)cc1`, the GI50 is inactive: > 100 µM. Take `COC(=O)Cc1cc(=O)oc2c1C(=O)CCC2`: the GI50 is inactive: > 100 µM. Next, `COc1cccc(N2N=C3c4ccccc4-n4c(nc5ccccc54)C3C2N)c1` (configuration not stated): inactive: > 100 µM; `CCOC(=O)CNC(=O)C(CSC(=O)N(C)O)NC(=O)CCC(N)C(=O)O` (configuration not stated): inactive: 458 µM; `COC1OC2COC(C)(C)OC2C(OC(C)=O)C1NC(=O)N(CCCl)N=O` (configuration not stated): inactive: > 100 µM. Turning to `Cc1c2n(c(=O)[nH]c1=O)C1OC(CO)C(N=[N+]=[N-])C1O2` (configuration not stated), the GI50 is inactive: > 100 µM. Regarding `COC(=O)[C@@H]1CN(C(=O)c2ccccc2)C(=O)N1C(=O)OCc1ccccc1`, the GI50 was inactive: > 100 µM. `CC(=O)N(CCc1ccccc1)C(C)(C#N)c1ccccc1` (configuration not stated): the GI50 was inactive: > 100 µM. For the compound `N#CC(NNC(=O)Cc1ccccc1)c1ccc([N+](=O)[O-])cc1` (configuration not stated), the GI50 is inactive: > 100 µM. On to `CC[C@@]1(O)C(=O)OCc2c1cc1n(c2=O)Cc2c-1nc1ccccc1c2/C=N\NC(=O)C(C)N` (some centres not stated), for which the GI50 is inactive: 1.52 µM. With `O=C(NC(=O)c1ccccc1)OC(c1ccccc1)C1CO1` (configuration not stated), the GI50 is inactive: > 100 µM. On to `N#CCN1CCOCCOCCN(CC#N)CCOCCOCC1`, for which the GI50 was inactive: > 100 µM.

As for `O=S(=O)(c1ccccc1)n1c(C(O)c2ccncc2)cc2ccccc21` (configuration not stated), the GI50 was inactive: 53.8 µM. Take `CC1(C)OCC2OC(n3cnc4c(N)nc(Cl)nc43)C(OS(C)(=O)=O)C2O1` (configuration not stated): the GI50 is inactive: > 100 µM. For the compound `COc1cc(C2c3cc4c(cc3OC(O)C2C)OCO4)cc(OC)c1O` (configuration not stated), the GI50 was inactive: 29.4 µM. Next, `Cc1nc(=O)n2c(C)n[nH]c2c1C(=O)O`: inactive: > 100 µM. On to `CCN(CC)CCNc1ccc2nc(C)n3c4ccc(O)cc4c(=O)c1c23`, for which the GI50 is active: 0.513 µM.

Take `CC(=O)OCCOCn1c2ccccc2c2c3c(c4c5ccccc5n(COCCOC(C)=O)c4c21)C(=O)N(Cc1ccccc1)C3=O`: the GI50 was inactive: > 100 µM. For the compound `COc1ccc(C2=NN(c3nsc4ccccc34)C(=O)CC2)cc1`, the GI50 is inactive: > 100 µM. Regarding `CCCCCCCCCCCNC=O`, the GI50 was inactive: > 100 µM. As for `C=CCC1=CC2(OC)C(=O)C(OC)(OC)C1C1C(OC)(OC)C(=O)C(OC)=CC12CC=C` (configuration not stated), the GI50 is inactive: > 100 µM.

As for `NC(=S)/N=C(/c1nc2ccc(Cl)cc2nc1O)C(O)c1ccccc1Cl` (configuration not stated), the GI50 is inactive: > 100 µM. In the case of `CCCCCN1C(=O)C(Cc2ccccc2)N=C(c2ccc(O)cc2)c2cc(Cl)ccc21` (configuration not stated), the GI50 is inactive: 14.3 µM. With `COc1cccc(/C=C\c2ccnc3ccccc23)c1` the figure was inactive: > 10 µM; with `[O-][n+]1c2c([n+]([O-])c3ccccc31)-c1cccc3cccc-2c13`, inactive: > 100 µM; with `COC(c1ccccc1)C(c1ccccc1)N1CCOCC1` (configuration not stated), inactive: > 100 µM. Next, `CC1(CC(=O)O)OC2CCCCCC2O1.NCc1ccccc1` (configuration not stated): inactive: 50.8 µM; `CC1(c2cccc(C3CC4(CCC3=O)OCCCCO4)c2)OCCO1` (configuration not stated): inactive: > 100 µM. With `COC(=O)c1cc(C)n2c1CS[C@@H]2c1ccccc1` the figure was inactive: 51.6 µM; with `C/C=C\C(CC(=O)NCCc1c[nH]c2ccccc12)CC(=O)OC` (configuration not stated), inactive: > 100 µM; with `CCOc1ccc(/N=C/c2ccnc3ccccc23)cc1`, inactive: 86.1 µM. `Cc1cc2c([nH]c3ccccc32)c2c1OC(C)(C)C1C3CC(C)(C)Oc4c(C)cc5c6ccccc6n(c5c43)C21` (configuration not stated): the GI50 was inactive: 85.1 µM. Take `O=C(N/N=C1\C(=O)N(c2nccs2)C(=O)C(=O)C1c1nc2ccccc2s1)c1ccccc1O` (configuration not stated): the GI50 is inactive: 36.8 µM.

In the case of `Cn1cc(NC(=O)Nc2cc(C(=O)Nc3cc(C(=O)Nc4ccc(S(=O)(=O)O)c5cc(S(=O)(=O)O)ccc45)n(C)c3)n(C)c2)cc1C(=O)Nc1cc(C(=O)Nc2ccc(S(=O)(=O)O)c3cc(S(=O)(=O)O)ccc23)n(C)c1`, the GI50 is inactive: > 100 µM. With `O=C1C2C3C=C4c5ccccc5N(c5ccccc5)C4(C2C(=O)N1c1ccc([N+](=O)[O-])cc1)[C@H]1C(=O)N(c2ccc([N+](=O)[O-])cc2)C(=O)[C@@H]31` (some centres not stated), the GI50 is inactive: > 100 µM. Next, `CC1(C)CCC[C@@]2(C)C1CCC1(C)C(CCc3ccoc3)/C(=C/OS(=O)(=O)O)CCC12` (some centres not stated): inactive: > 100 µM; `COC(=O)[C@]1(c2cc3ccccc3[nH]2)CC2CNC1C1OC(C)(C)OC21` (some centres not stated): inactive: > 100 µM. With `COC(=O)C(CSSC[C@H](N/C(C)=C/C(C)=O)C(=O)OC)N/C(C)=C/C(C)=O` (some centres not stated) the figure was inactive: 25.6 µM; with `CCN1CCN(c2nc3ccccc3c3c2CCOc2ccccc2-3)CC1`, inactive: > 45.4 µM. Next, `O=c1c(Cc2ccccc2)c(-c2ccccc2)[nH]n1C1=NCCN1`: inactive: 35.9 µM; `COc1ccc2c(c1)/C(=C\c1cccc(/C=C3/C(=O)Nc4ccc(OC)cc43)n1)C(=O)N2`: inactive: 4.3 µM.

For the origin of these results see ChEMBL document CHEMBL1201862, “PubChem BioAssay data set” (2004).
